This note sets out measurements from patent US11420968B2 (priority 2018, dated 2022).

The subject of assay [1] is RS4;11 cells. Put plainly: cells. Conditions: Homo sapiens, RS4-11, 48 h, read-out: Cellular activity (IC50, nM) RS4; 11.
For assay [2], the system named is Molt-4 cells. Put plainly: cells. The conditions noted are these: Homo sapiens.
[3] abbreviates: MOLT-4, read-out: Celluclar activity (IC50, nM) Molt-4.
Where [4] appears, read: MOLT-4, read-out: Cellular activity (IC50, nM) Molt-4.

Where two headings read alike, the source gives them in different places. Some results are limits rather than exact numbers.

On to `O=C(NS(=O)(=O)c1ccc(NCC2CCOCC2)c([N+](=O)[O-])c1)c1ccc(C2=CCC(N3CCCC3c3cc(F)ccc3C3CC3)CC2)cc1Oc1cnc2[nH]ccc2c1` (centres unmarked) [Example C54, 3-((1H-pyrrolo[2,3-b]pyridin-5-yl)oxy)-4′-(2-(2-cyclopropyl-5-fluorophenyl)pyrrolidin-1-yl)-N-((3-nitro-4-(((tetrahydro-2H-pyran-4-yl)methyl)amino)phenyl)sulfonyl)-2′,3′,4′,5′-tetrahydro-[1,1′-biphenyl]-4-carboxamide], for which, in assay [1], the IC50 (as a rule, the concentration at which inhibition is half-maximal) came to 185 nM.
With `O=C(NS(=O)(=O)c1ccc(NCC2CCOCC2)c([N+](=O)[O-])c1)c1ccc(-c2ccc(C3CCCN3c3ccccc3[N+](=O)[O-])cc2)cc1Oc1cnc2[nH]ccc2c1` (centres unmarked) [Example A63, 3-((1H-pyrrolo[2,3-b]pyridin-5-yl)oxy)-N-((3-nitro-4-(((tetrahydro-2H-pyran-4-yl)methyl)amino)phenyl)sulfonyl)-4′-(1-(2-nitrophenyl)pyrrolidin-2-yl)-[1,1′-biphenyl]-4-carboxamide], the IC50 in assay [1] amounted to 328 nM.
Regarding `O=C(NS(=O)(=O)c1ccc(NCC2CCOCC2)c([N+](=O)[O-])c1)c1ccc(C2=CCC(N3Cc4ccccc4C3c3ccccc3C3CC3)CC2)cc1Oc1cnc2[nH]ccc2c1` (centres unmarked) [Example C86, 3-((1H-pyrrolo[2,3-b]pyridin-5-yl)oxy)-4′-(1-(2-cyclopropylphenyl)isoindolin-2-yl)-N-((3-nitro-4-(((tetrahydro-2H-pyran-4-yl)methyl)amino)phenyl)sulfonyl)-2′,3′,4′,5′-tetrahydro-[1,1′-biphenyl]-4-carboxamide], in assay [1], the IC50 stood at 748 nM.
Turning to `CC1CCN(C2CC=C(c3ccc(C(=O)NS(=O)(=O)c4ccc(NCC5CCOCC5)c([N+](=O)[O-])c4)c(Oc4cnc5[nH]ccc5c4)c3)CC2)C1c1ccccc1C1CC1` (centres unmarked) [Example C141, 3-((1H-pyrrolo[2,3-b]pyridin-5-yl)oxy)-4′-(2-(2-cyclopropylphenyl)-3-methylpyrrolidin-1-yl)-N-((3-nitro-4-(((tetrahydro-2H-pyran-4-yl)methyl)amino)phenyl)sulfonyl)-2′,3′,4′,5′-tetrahydro-[1,1′-biphenyl]-4-carboxamide], the half-inhibitory concentration (IC50) in assay [1] turned out to be 94 nM.
Take `O=C(NS(=O)(=O)c1ccc(NCC2CCOCC2)c([N+](=O)[O-])c1)c1ccc(C2=CCC(N3CCCC3c3ccccc3Cc3ccccc3)CC2)cc1Oc1cnc2[nH]ccc2c1` (centres unmarked) [Example C16, 3-((1H-pyrrolo[2,3-b]pyridin-5-yl)oxy)-4′-(2-(2-benzylphenyl)pyrrolidin-1-yl)-N-((3-nitro-4-(((tetrahydro-2H-pyran-4-yl)methyl)amino)phenyl)sulfonyl)-2′,3′,4′,5′-tetrahydro-[1,1-biphenyl]-4-carboxamide]: in assay [1], the half-inhibitory concentration (IC50) came out at 435 nM.
On to `O=C(NS(=O)(=O)c1ccc(NC[C@@H]2COCCO2)c([N+](=O)[O-])c1)c1ccc(N2CCC3(CC2)CC(N2CCC[C@H]2c2ccccc2C2CC2)C3)cc1Oc1cnc2[nH]ccc2c1` [Example F38, N-((4-((((R)-1,4-dioxan-2-yl)methyl)amino)-3-nitrophenyl)sulfonyl)-2-((1H-pyrrolo[2,3-b]pyridin-5-yl)oxy)-4-(2-((S)-2-(2-cyclopropylphenyl)pyrrolidin-1-yl)-7-azaspiro[3.5]nonan-7-yl)benzamide], for which the IC50 in assay [2] (setting [3]) and in assay [2] (setting [4]) was 1740 nM in each case.
As to `C[C@]1(O)CC[C@H](CNc2ccc(S(=O)(=O)NC(=O)c3ccc(N4CC5(CC(N6CCC[C@H]6c6ccccc6C6CC6)C5)C4)cc3Oc3cnc4[nH]ccc4c3)cc2[N+](=O)[O-])CC1` [Example F106, 2-((1H-pyrrolo[2,3-b]pyridin-5-yl)oxy)-4-(6-((S)-2-(2-cyclopropylphenyl)pyrrolidin-1-yl)-2-azaspiro[3.3]heptan-2-yl)-N-((4-((((1r,4r)-4-hydroxy-4-methylcyclohexyl)methyl)amino)-3-nitrophenyl)sulfonyl)benzamide], the IC50 in assay [2] (setting [3]) and in assay [2] (setting [4]) was 1210 nM throughout.
Take `CCc1ccccc1[C@@H]1CCCN1C1CC2(CCN(c3ccc(C(=O)NS(=O)(=O)c4ccc(NC[C@@H]5COCCO5)c([N+](=O)[O-])c4)c(Oc4cnc5[nH]ccc5c4)c3)CC2)C1` [Example F41, N-((4-((((R) 1,4-dioxan-2-yl)methyl)amino)-3-nitrophenyl)sulfonyl)-2-((1H-pyrrolo[2,3-b]pyridin-5-yl)oxy)-4-(2-((S)-2-(2-ethylphenyl)pyrrolidin-1-yl)-7-azaspiro[3.5]nonan-7-yl) benzamide]: the IC50 in assay [2] (setting [3]) and in assay [2] (setting [4]) was 4300 nM in each case.
In the case of `O=C(NS(=O)(=O)c1ccc(NCC2CCOCC2)c([N+](=O)[O-])c1)c1ccc(N2CCC3(CC2)CC(N2CCCC2c2cc(C4CC4)ccc2C2CC2)C3)cc1Oc1cnc2[nH]ccc2c1` (centres unmarked) [Example F76, 2-((1H-pyrrolo[2,3-b]pyridin-5-yl)oxy)-4-(2-(2-(2,5-dicyclopropylphenyl)pyrrolidin-1-yl)-7-azaspiro[3.5]nonan-7-yl)-N-((3-nitro-4-(((tetrahydro-2H-pyran-4-yl)methyl)amino)phenyl)sulfonyl)benzamide], in assay [2] (setting [4]), the IC50 was > 10000 nM.
On to `O=C(NS(=O)(=O)c1ccc(NCC2CCOCC2)c([N+](=O)[O-])c1)c1ccc(-c2ccc(N3CCCCCC3c3ccccc3)cc2)cc1Oc1cnc2[nH]ccc2c1` (centres unmarked) [Example A15, 3-((1H-pyrrolo[2,3-b]pyridin-5-yl)oxy)-N-((3-nitro-4-(((tetrahydro-2H-pyran-4-yl)methyl)amino)phenyl)sulfonyl)-4′-(2-phenylazepan-1-yl)-[1,1′-biphenyl]-4-carboxamide], for which the IC50 in assay [1] was determined as 200 nM.
On to `O=C(NS(=O)(=O)c1ccc(NCC2CCOCC2)c([N+](=O)[O-])c1)c1ccc(C2CCC(N3CCCC3C=Cc3ccccc3)CC2)cc1Oc1cnc2[nH]ccc2c1` (centres unmarked) [Example D102, 2-((1H-pyrrolo[2,3-b]pyridin-5-yl)oxy)-N-((3-nitro-4-(((tetrahydro-2H-pyran-4-yl)methyl)amino)phenyl)sulfonyl)-4-(4-(2-styrylpyrrolidin-1-yl)cyclohexyl)benzamide], for which the half-inhibitory concentration (IC50) in assay [1] was found to be 1040 nM.
As for `O=C(NS(=O)(=O)c1ccc(NC[C@@H]2COCCO2)c([N+](=O)[O-])c1)c1ccc(C2=CCC(N3CCC[C@H]3c3ccccc3C3CC3)CC2)cc1Oc1cnc2[nH]ccc2c1` (single isomer, unassigned) [Example G9-a, (R or S)—N-((4-((((R)-1,4-dioxan-2-yl)methyl)amino)-3-nitrophenyl)sulfonyl)-3-((1H-pyrrolo[2,3-b]pyridin-5-yl)oxy)-4′-((S)-2-(2-cyclopropylphenyl)pyrrolidin-1-yl)-2′,3′,4′,5′-tetrahydro-[1,1′-biphenyl]-4-carboxamide], the IC50 in assay [2] (setting [3]) and in assay [2] (setting [4]) was > 10000 nM in each case.
For the molecule `O=C(NS(=O)(=O)c1ccc(NCC2CCOCC2)c([N+](=O)[O-])c1)c1ccc(C2=CCC(N3CCCC3Cc3ccccc3C3CC3)CC2)cc1Oc1cnc2[nH]ccc2c1` (centres unmarked) [Example C118, 3-((1H-pyrrolo[2,3-b]pyridin-5-yl)oxy)-4′-(2-(2-cyclopropylbenzyl)pyrrolidin-1-yl)-N-((3-nitro-4-(((tetrahydro-2H-pyran-4-yl)methyl)amino)phenyl)sulfonyl)-2′,3′,4′,5′-tetrahydro-[1,1′-biphenyl]-4-carboxamide], the IC50 in assay [1] amounted to 339 nM.
Consider `O=C(NS(=O)(=O)c1ccc(NCC2CCOCC2)c([N+](=O)[O-])c1)c1ccc(C2=CCC(N3CCCC3C3CCCCC3)CC2)cc1Oc1cnc2[nH]ccc2c1` (centres unmarked) [Example C60, 3-((1H-pyrrolo[2,3-b]pyridin-5-yl)oxy)-4′-(2-cyclohexylpyrrolidin-1-yl)-N-((3-nitro-4-(((tetrahydro-2H-pyran-4-yl)methyl)amino)phenyl)sulfonyl)-2′,3′,4′,5′-tetrahydro-[1,1′-biphenyl]-4-carboxamide], for which the IC50 in assay [1] worked out at 107 nM.
Regarding `CN1CCC(c2ccccc2[C@H]2CCCN2c2ccc(-c3ccc(C(=O)NS(=O)(=O)c4ccc(NC[C@H]5CC[C@](C)(O)CC5)c([N+](=O)[O-])c4)c(Oc4cnc5[nH]ccc5c4)c3)cc2)CC1` [Example G122, 3-((1H-pyrrolo[2,3-b]pyridin-5-yl)oxy)-N-((4-((((1r,4r)-4-hydroxy-4-methylcyclohexyl)methyl)amino)-3-nitrophenyl)sulfonyl)-4′-((R)-2-(2-(1-methylpiperidin-4-yl)phenyl)pyrrolidin-1-yl)-[1,1′-biphenyl]4-carboxamide], the IC50 in assay [2] (setting [3]) and in assay [2] (setting [4]) was > 10000 nM each time.
In the case of `CN(C)CCC(=O)N1CCC(c2ccccc2[C@H]2CCCN2c2ccc(-c3ccc(C(=O)NS(=O)(=O)c4ccc(NC[C@H]5CC[C@](C)(O)CC5)c([N+](=O)[O-])c4)c(Oc4cnc5[nH]ccc5c4)c3)cc2)CC1` [Example G126, 3-((1H-pyrrolo[2,3-b]pyridin-5-yl)oxy)-4′-((R)-2-(2-(1-(3-(dimethylamino)propanoyl)piperidin-4-yl)phenyl)pyrrolidin-1-yl)-N-((4-((((1r,4r)-4-hydroxy-4-methylcyclohexyl)methyl)amino)-3-nitrophenyl)sulfonyl)-[1,1′-biphenyl]-4-carboxamide], the IC50 in assay [2] (setting [4]) was > 10000 nM.
As for `CC(C)c1ccccc1[C@@H]1CCCN1c1ccc(-c2ccc(C(=O)NS(=O)(=O)c3ccc(OCC4(F)CCN(C5COC5)CC4)c([N+](=O)[O-])c3)c(Oc3cnc4[nH]ccc4c3)c2)cc1` [Example G105, (S)-3-((1H-pyrrolo[2,3-b]pyridin-5-yl)oxy)-N-((4-((4-fluoro-1-(oxetan-3-yl)piperidin-4-yl)methoxy)-3-nitrophenyl)sulfonyl)-4′-(2-(2-isopropylphenyl)pyrrolidin-1-yl)-[1,1′-biphenyl]-4-carboxamide], the IC50 in assay [2] (setting [4]) came out at 2670 nM.
Regarding `O=C(NS(=O)(=O)c1ccc(NC[C@@H]2COCCO2)c([N+](=O)[O-])c1)c1ccc(C2=CCC(N3CCCC3c3ccccc3C3CC3)CC2)cc1Oc1cnc2[nH]ccc2c1` (stereo partly drawn) [Example G9, N-((4-((((R)-1,4-dioxan-2-yl)methyl)amino)-3-nitrophenyl)sulfonyl)-3-((1H-pyrrolo[2,3-b]pyridin-5-yl)oxy)-4′-(2-(2-cyclopropylphenyl)pyrrolidin-1-yl)-2′,3′,4′,5′-tetrahydro-[1,1′-biphenyl]-4-carboxamide], in assay [2] (setting [4]), the IC50 is 4470 nM.
